Experimental data from PubChem BioAssay AID1745845 (National Center for Advancing Translational Sciences (NCATS), 2022).
“And” between values parts separate entries of the source, which are not always exact repeats. Equal entries are not always repeated. The whole screen tested about 360,000 compounds, of which about 2,600 (0.72%) were called active. Inconclusive results, whose numbers are uncertain, are shown with a selection of clear calls. The call rests on the fitted dose curve; in most records, active means well fitted inhibition curve with a large enough effect; inconclusive means small, poorly fitted or top-dose-only effect; inactive means no such curve, though single readings can be large or run the other way. Potencies of inconclusive entries are doubtful fits and often do not repeat.

Test: Primary qHTS for Inhibitors of ATXN expression; further: nearly all actives have a fitted effect of over 55% in size
Details: HEK-293 ATXN2-luciferase reporter, luminescence, 24 h; activity change, negative = inhibition: at 57 µM (top of the series)
Method in brief: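 ATXN2-luciferase reporter cells (luciferase flanked by upstream and downstream ATXN2 gene portions) were treated 24 h at 37 °C with compounds at up to 57 uM. SteadyGlo luminescence gave expression; GF-AFC fluorescence gave viability.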
On the % scale 0 is the no-effect control and ±100 the full control effect; potency means the concentration at half of the fitted maximal effect; tags describe the fitted curve by direction and shape.

Potency, inactive:
O=c1cc(-c2ccccc2)oc2cc(O)cc(O)c12

Potency, inconclusive:
COc1ccc(CNCC(O)(c2ccccc2)c2ccc(Cl)cc2)cc1 (stereo not given) 28.2 µM [inhibitor, single point]
Cc1ccc(NC(=O)CSc2nc3ccccc3c3nc(CCn4c(C)nc5ccccc54)nn23)cc1F 3.98 µM [inhibitor, full curve, poor fit]
Cc1ccc(C#CC[N+]2(CC#Cc3ccc(C)cc3)CCCCC2)cc1 7.94 µM [inhibitor, full curve]
COc1ccc2oc3cc(NCCN(C)C)ccc3c(=O)c2c1 17.8 µM [inhibitor, single point]
CCCc1nnc(NC(=O)c2nc(S(=O)(=O)Cc3ccc(C)cc3)ncc2Cl)s1 39.8 µM [inhibitor, single point]
Cc1cc(C(=O)N2CC=C(c3ccccc3)CC2)c2ccccc2n1 0.562 µM [inhibitor, partial curve, poor fit]
Cc1ccc2nc(-c3ccccn3)c(Nc3ccc(F)cc3)n2c1 5.62 µM [inhibitor, full curve]
COC(=O)[C@@H](Cc1ccccc1)NC(=O)NCCc1c[nH]c2ccccc12 37.7 µM [inhibitor, partial curve, poor fit]
Cc1cccc(OCCNC(=O)c2ccc(Oc3ccc(C(F)(F)F)cc3[N+](=O)[O-])cc2)c1 28.2 µM [inhibitor, partial curve, poor fit]
O=C1CN(C(=O)c2c(F)cccc2F)C(c2ccc(F)cc2)c2cc(Br)ccc2N1 (stereo not given) 39.8 µM [inhibitor, single point]
Cc1nnc(NC(=O)c2nc(S(=O)(=O)Cc3ccccc3)ncc2Cl)s1 39.8 µM [inhibitor, single point]
CCOC(=O)C1=CCN(S(=O)(=O)c2ccccc2C)C1c1ccc(Br)cc1 (stereo not given) 25.1 µM [inhibitor, partial curve, poor fit]
CCCCC(CC)Cn1c(O)c(/C=C2\C=NN=C2c2ccccc2)sc1=S (stereo not given) 39.8 µM [inhibitor, single point]
Cc1cc(OCCCS(C)(=O)=O)cc(C)c1-c1cccc(COc2ccc3c(c2)OC[C@H]3CC(=O)O)c1 27.3 µM [inhibitor, partial curve]
CCN(CC)C(=S)SSC(=S)N(CC)CC 15.3 nM [inhibitor, full curve, poor fit] and 28.2 µM [inhibitor, full curve, poor fit] and 178 nM [inhibitor, full curve, poor fit]
Cc1ccc2ccc(C(Nc3ccccn3)c3ccccc3)c(O)c2n1 (stereo not given) 39.8 µM [inhibitor, single point] and 20 µM [inhibitor, partial curve]
COCCCN1C(=O)C(=O)/C(=C(/O)c2ccc(OC)cc2C)C1c1cccnc1 (stereo not given) 28.2 µM [inhibitor, partial curve, poor fit]
COCCn1c(C)cc(C(=O)COC(=O)C23CC4CC(CC(O)(C4)C2)C3)c1C 25.1 µM [inhibitor, single point]
CCCOc1ccccc1C(=O)N1CCC(c2nc3ccccc3s2)CC1 31.6 µM [inhibitor, single point]
CC(=O)c1c(C)[nH]c(C(=O)Nc2nc(-c3ccc(Cl)cc3)cs2)c1C 7.08 µM [inhibitor, partial curve, poor fit]
CCOc1ccc(CCN2C(=O)C(=O)N([C@@H](CC(C)C)CN3CCC[C@H]3CN3C(=O)C(=O)NC[C@@H]3Cc3ccccc3)C[C@@H]2Cc2ccccc2)cc1 28.2 µM [inhibitor, single point]
COc1cc(CCc2cc(NC(=O)c3ccc(N4C[C@@H](C)N[C@@H](C)C4)cc3)n[nH]2)cc(OC)c1 38.5 µM [inhibitor, partial curve, poor fit]
NC(=O)c1c(NC(=O)COC(=O)c2ccc(S(=O)(=O)Nc3ccccc3)cc2)sc2c1CCCC2 37.7 µM [inhibitor, single point]
CN1CC(c2ccccc2)C2(SC(=S)N(Cc3ccco3)C2=O)C12C(=O)Nc1ccccc12 (stereo not given) 22.4 µM [inhibitor, single point]
N#CC1=C(N)Oc2c(O)cc3ccccc3c2C1c1ccsc1 (stereo not given) 1.68 µM [inhibitor, single point]
N#Cc1cc(Oc2cccc3cccnc23)c(-n2nnc3ccccc32)cc1C#N 31.6 µM [inhibitor, single point]
COc1ccc(OC)c(C(=O)c2ccc(C(=O)c3cc(OC)ccc3OC)cc2)c1 14.1 µM [inhibitor, partial curve, poor fit]
COc1cc(C(=O)NNC(=S)NC(=O)c2ccccc2C)cc(OC)c1OC 14.1 µM [inhibitor, single point]
CN(c1cccc(NC(=O)CN(c2ccc(C34CC5CC(CC(C5)C3)C4)cc2)S(C)(=O)=O)c1)S(C)(=O)=O 39.8 µM [inhibitor, single point]
CCc1nnc(NC(=O)C2CCN(c3ncnc4sc(C)c(C)c34)CC2)s1 8.91 µM [inhibitor, partial curve, poor fit]
c1coc(CNc2nc(N3CCCCC3)nc3ccccc23)c1 35.5 µM [inhibitor, partial curve, poor fit]
CCCCn1c(-c2nonc2N)nc2ccccc21 25.1 µM [inhibitor, partial curve, poor fit]
CN(C)S(=O)(=O)c1cccc(NC(=O)CN2C(=O)NC(Cc3c[nH]c4ccccc34)C2=O)c1 (stereo not given) 5.01 µM [inhibitor, full curve, poor fit]
CCN(CC)CCCC(C)n1c2nc(=O)[nH]c(=O)c-2nc2cc(Cl)ccc21 (stereo not given) 7.94 µM [inhibitor, full curve, poor fit]
O=C(NNC(=S)NC(=O)c1cn(-c2ccccc2)nc1-c1ccccc1)c1ccncc1 23.8 µM [inhibitor, single point]
CCc1nc2c(OCc3ccccc3)cccn2c1N(Cc1ccccc1)C(C)=O 28.2 µM [inhibitor, partial curve, poor fit]

Potency, active:
COc1cc2c(cc1OC)C(c1ccccc1)N(C(=O)CCl)CC2 (stereo not given) 28.2 µM
O=C(c1cc(COc2cccc(C(F)(F)F)c2)on1)N1CCC(c2ccncc2)CC1 14.1 µM
Cn1sc2ccccc2c1=O 28.2 µM
Cc1cc2nc3ccc(=[N+](C)C)cc-3sc2cc1N 7.94 µM and 7.08 µM
O=C(Nc1cccc(Br)c1)Oc1cccc2cccnc12 6.31 µM
CN(C)CC=CC(=O)Nc1cc2c(Nc3ccc(F)c(Cl)c3)ncnc2cc1O[C@H]1CCOC1 27.3 µM
CCn1c2ccccc2c2cc(C3C(C#N)=C(N)Oc4n[nH]c(COC)c43)ccc21 (stereo not given) 2.51 µM
Cc1cc(C(=O)N/N=C/c2cc(Br)ccc2OC(=O)c2ccccc2)n[nH]1 26.7 µM
CCOc1ccc(-n2c(C)cc(C(=O)CCl)c2C)cc1 23.8 µM
CN(C)c1ccc(/C=C/c2ccc3c4ccccc4ccc3[n+]2-c2ccccc2)cc1 1.06 µM
Cc1ccc2c(c1)[nH]c1c(N3CCN(Cc4ccccc4)CC3)ncnc12 8.91 µM
COc1ccc2c(c1)c(C1=C(c3c[nH]c4ccccc34)C(=O)NC1=O)cn2CCCN(C)C 21.7 µM
OC(CNCCc1ccc(C(F)(F)F)cc1)COC(c1ccccc1)c1ccccc1 (stereo not given) 28.2 µM
CCCN(C(=O)CCl)C1=CCCCC1 8.44 µM

Activity change, negative = inhibition, inactive:
CC1=C(C(=O)Nc2ccc(Cl)cc2)C(C(C)C)n2nc(SCc3cccc(C)c3)nc2N1 (stereo not given) 1.19%
CCCc1cc(=O)oc2cc(C)cc(OC(C)C(=O)NCC3CCC(C(=O)O)CC3)c12 (stereo not given) -4.88%
Cc1nn(C)c(C)c1NC(=O)CCl 27.1%
CCOC(=O)Cc1cc(=O)n2[nH]cc(-c3ccc(Cl)cc3)c2n1 12.4%
CC(C)(C)c1ccc(NC(=O)COC(=O)C2(C)CC2(Cl)Cl)cc1 (stereo not given) -4.56%
CSc1cccc(NC(=S)Nc2cc(C)ccc2C)c1 1.67%
COc1cccc(Cn2c3ccc(NC(=O)Cc4cc(OC)ccc4OC)cc3c(=O)n2C)c1 -11.8%
O=C(Nn1c(O)c(C=C2N=c3ccccc3=N2)sc1=S)c1ccccc1Cl 4.16%
Cc1cc(N2CCOCC2)nc2ccc(NC(=S)N3CCCCC3C)cc12 (stereo not given) -20%
CCCOc1ccc(N2C(=O)CC(N(CCc3ccc(OC)c(OC)c3)C(=S)Nc3ccccc3)C2=O)cc1 (stereo not given) 1.68%
O=C(NCc1ccccc1F)C1CCCN1S(=O)(=O)c1ccc(Cl)cc1 (stereo not given) 32.2%
CC(=O)Nc1ccc(NC(=O)C(C)OC(=O)CNS(=O)(=O)/C=C/c2ccc(C)cc2)cc1 (stereo not given) 4.39%
Cc1ccc2oc(-c3ccc(NC(=O)CC(C)C)cc3)nc2c1 7.13%

Activity change, negative = inhibition, inconclusive:
Cc1cccc(CC2S/C(=N/N=C/c3ccco3)NC2=O)c1 (stereo not given) -45.4% [inhibitor]
